Reference: PubChem BioAssay AID1345082 (National Center for Advancing Translational Sciences (NCATS), 2018)
Hit rate of the full screen: of about 94,000 compounds, about 4,000 (4.3%) were called active. This list was built around the results that the source calls inconclusive (neither active nor inactive); the mix of calls is not that of the screen. Calls follow the shape of the dose curve; as a rule, active = well fitted inhibition curve with a large enough effect; inconclusive = small, poorly fitted or top-dose-only effect; inactive = no such curve, though single readings can be large or run the other way. A potency beside an inconclusive call is a rough fit, not a confirmed value.

Experiment: Cytotoxic Profiling in NIH 3T3 Cell Line of Diverse Libraries Using Quantitative High-Throughput Screening; also: nearly all actives have a fitted effect of over 55% in size
Conditions: NIH 3T3 viability, CellTiter-Glo ATP luminescence, 48-72 h; activity change, negative = cytotoxicity: at 96.7 µM (top of the series); series mostly up to 96.7 µM
Outline: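 Cells were seeded at 400 per well, treated with pin-transferred compound, and kept 48 or 72 hr at 37 °C before CellTiter-Glo addition and luminescence imaging of cellular ATP.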
% is scaled to controls: 0 for no effect and ±100 for the full control effect; potency is read from the fitted curve at half-maximal effect; tags tell the direction and shape of the fitted curve.

| SMILES | Potency | activity change, negative = cytotoxicity |
| --- | --- | --- |
| CC1(C)C(=O)N(CCOc2ccccc2)[C@H]2CN(C3CCOCC3)C[C@H]2[S+]1(=O)[O-] | inconclusive: 100 µM [inhibitor, partial curve] | – |
| Cc1cccc(C(=O)N2C(C(=O)NCc3ccc4c(c3)OCO4)COC23CCC(C)CC3)c1 (configuration not stated) | inconclusive: 50.1 µM [inhibitor, partial curve, poor fit] | – |
| CCn1c(C2CCN(C(=O)c3cc(F)cc(F)c3)CC2)nn(C)c1=O | – | inactive: -19.5% |
| Cc1nc(-c2ccc(Cl)cc2)n(Cc2ccc(F)c(F)c2)c(=O)c1CCO | inconclusive: 50.1 µM [inhibitor, partial curve, poor fit] | – |
| CC(=O)c1ccc(NC(=O)O[C@@H]2CO[C@H]3[C@@H]2OC[C@@H]3NC(=O)Nc2ccc(Oc3ccccc3)cc2)cc1 | inconclusive: 50.1 µM [inhibitor, partial curve, poor fit] | – |
| CC(=O)NC1CCN(c2ccc3nnc(-c4ccccc4)n3n2)C1 (configuration not stated) | – | inactive: -16.2% [at 138 µM] |
| CN(C)c1ccc2c(c1)CN(C(=O)c1cnn(C)c1)CCO2 | – | inactive: -23.7% |
| CC1=NS(=O)(=O)N(C)C=C1C(=O)OCc1nc(-c2cccs2)no1 | – | inactive: -21.8% |
| COc1cccc(C2Cn3nnc(-c4nc(-c5ccc(Br)cc5)no4)c3CO2)c1 (configuration not stated) | inconclusive: 70.8 µM [inhibitor, single point] | – |
| Cc1ccc(-c2cc3c(=O)n(CCNC(=O)c4nn(C)c5ccccc45)ccn3n2)c(C)c1 | inconclusive: 70.8 µM [inhibitor, single point] | – |
| Cc1cc(C)n(CCC(=O)N2CCC(CCOc3ccc(F)cc3)C2)n1 (configuration not stated) | – | inactive: -21.9% |
| O=C(Cc1ccc(F)cc1)N1CCC2(CC1)NC(=O)N(c1ccccc1)N2 | inconclusive: 15.8 µM [inhibitor, full curve, poor fit] | – |
| Cc1noc(-c2cn(C3CCN(C(=O)c4ccc(F)c(F)c4)CC3)nn2)n1 | inconclusive: 44.7 µM [inhibitor, partial curve, poor fit] | – |
| COc1ccccc1NC(=O)c1cc2c(N3CCSCC3)nc(C)cn2n1 | – | inactive: -10.1% |
| CC(C)c1ccc(CC(=O)N2CCCc3ncc(C(=O)N(C)c4ccccc4)cc32)cc1 | inconclusive: 89.1 µM [inhibitor, partial curve, poor fit] | – |
| O=C(CC(c1cccc([N+](=O)[O-])c1)c1c[nH]c2ccccc12)NCc1ccccc1 (configuration not stated) | inconclusive: 50.1 µM [inhibitor, partial curve, poor fit] | – |
| COCC(=O)NC1CCN(c2nccc(Nc3ccccc3Cl)n2)CC1 | inconclusive: 35.5 µM [inhibitor, partial curve, poor fit] | – |
